PubChem BioAssay AID488969 (Vanderbilt High Throughput Screening Facility, 2010)
The full ranking holds about 110,000 compounds; the median of “z-score” is about -0.1, and the highest 2% start at about 2. This is one part of the list. The source made the active and inactive calls.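 Rule for the calls: active = z-score in the third read window above 3 or below -3; inactive = the rest.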

Target: Metabotropic glutamate receptor 8 (Rattus norvegicus) (UniProt P70579)
Experiment: mGluR8 Gi/Go-coupled signaling modulation – cell-based, rat, thallium flux, HTS, primary screen (AID 488969)
Details: HEK293 rat mGluR8, GIRK (G protein-gated inwardly rectifying potassium channel) thallium flux, FluoZin2; at 10 µM; stronger effect = higher value; submaximal glutamate (EC20) added with thallium

Sequence of UniProt P70579 (P70579 whole entry, looked up): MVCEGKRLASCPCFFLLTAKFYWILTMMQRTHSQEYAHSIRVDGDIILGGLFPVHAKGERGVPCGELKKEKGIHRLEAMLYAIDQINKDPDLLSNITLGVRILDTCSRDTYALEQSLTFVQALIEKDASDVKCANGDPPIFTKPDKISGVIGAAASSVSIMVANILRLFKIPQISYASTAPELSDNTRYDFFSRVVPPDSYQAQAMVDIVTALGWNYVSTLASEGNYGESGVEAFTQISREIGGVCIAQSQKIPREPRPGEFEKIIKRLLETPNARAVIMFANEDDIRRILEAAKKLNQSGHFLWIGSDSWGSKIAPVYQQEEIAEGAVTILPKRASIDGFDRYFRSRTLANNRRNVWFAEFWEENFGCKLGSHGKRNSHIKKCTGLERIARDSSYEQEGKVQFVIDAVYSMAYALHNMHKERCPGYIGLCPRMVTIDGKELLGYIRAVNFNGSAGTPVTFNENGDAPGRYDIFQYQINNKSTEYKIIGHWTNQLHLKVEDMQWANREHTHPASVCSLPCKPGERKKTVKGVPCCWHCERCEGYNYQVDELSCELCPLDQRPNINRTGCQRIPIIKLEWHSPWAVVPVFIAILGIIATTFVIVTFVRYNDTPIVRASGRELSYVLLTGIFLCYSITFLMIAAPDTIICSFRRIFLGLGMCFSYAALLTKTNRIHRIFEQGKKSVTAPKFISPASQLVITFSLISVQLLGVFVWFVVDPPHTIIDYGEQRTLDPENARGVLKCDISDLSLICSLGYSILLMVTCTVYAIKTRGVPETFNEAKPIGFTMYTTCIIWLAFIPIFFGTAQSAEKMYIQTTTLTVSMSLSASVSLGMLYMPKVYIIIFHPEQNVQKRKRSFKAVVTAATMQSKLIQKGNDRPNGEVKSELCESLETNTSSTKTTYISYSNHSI

SMILES	z-score
Cc1ccnc(SCCn2c(N3CCN(Cc4ccccc4)CC3)nc3c2c(=O)[nH]c(=O)n3C)n1	-0.393
Cc1nnsc1C(=O)NNS(=O)(=O)c1ccccc1	-0.0677
CCOC(=O)C1=C(c2ccccc2)N=C2SCC(=O)N2C1c1ccc(O)c(OC)c1 (configuration not stated)	-0.15
COCC(=O)N1CCCN(c2nc3c(C)cccc3cc2C#N)CC1	0.765
COc1cc2nc(-c3cccs3)oc(=O)c2cc1OC	-0.693
NNC(=O)c1cccc(COc2cccc(Br)c2)c1	0.379
Cc1cc(C(=O)OCCN2C(=O)c3ccccc3C2=O)c2ccccc2n1	-0.679
COc1ccc(OC)c(NC(=O)c2ccc3nc(-c4ccccc4)c(-c4ccccc4)nc3c2)c1	0.122
O=C(O)CCn1c(SCc2ccccc2)nc2ccccc21	-0.0963
Cc1ccccc1-c1n[nH]c(=S)o1	0.676
CC(C)NC(=O)CSc1nnc(-c2ccco2)n1N	0.388
CCCCNC(=S)NNC(=O)c1ccc2c(c1)OCO2	-0.241
COc1cc(NC(=O)C/C(C)=N/NC(=O)Cc2ccc(Cl)cc2)c(OC)cc1Cl	-0.154
CCOC(=O)CCC(=O)N1CCOCCOCCN(C(=O)CCC(=O)OCC)CCOCC1	-0.107
O=C(COC(=O)C1(c2ccc(F)cc2)CCCC1)NCc1ccc2c(c1)OCO2	0.123
COc1ccc(-c2cccc(C(=O)Nc3cccc(C(=O)O)c3)c2)cc1	-1.09
O=C(CSCc1ccccc1)N1CCN(c2ccccc2)CC1	-0.141
Cn1nnnc1-c1cc(Br)ccc1NC(=O)c1ccccc1	0.308
CC1CC(C)CN(c2ncnc3c2cnn3Cc2ccc(Cl)cc2)C1 (configuration not stated)	-0.714
CC(C)NC(=S)N/N=C/c1ccc(N2CCOCC2)cc1	0.522
COc1ccc(NC(=O)c2cnn3c(C(F)(F)F)cc(-c4ccco4)nc23)cc1OC	0.686
O=C(Oc1cccc(N2C(=O)CCC2=O)c1)c1ccccc1	-0.0865
Cc1nc(C)c(C(=O)Nc2ccc(Oc3ccccc3)cc2)o1	active: 6.45
O=C1C=CC2C(c3ccc4c(c3)OCO4)CC1N2Cc1ccccc1 (configuration not stated)	-0.17

SMILES	z-score
O=C(O/N=C\c1ccc(N2CCCCC2)c([N+](=O)[O-])c1)c1cccc(C(F)(F)F)c1	0.31
CCOC(=O)C(C(=O)OCC)C1CCS(=O)(=O)C1 (configuration not stated)	0.345
Cc1nc(C)c(C(=O)NCc2ccccc2Cl)o1	0.415
Cc1cccc(NC(=O)CCNC(=O)c2ccco2)c1	-0.152
COc1cc(CNCCN2CCOCC2)ccc1OCc1ccc(Cl)cc1	0.833
CC1=C(C(=O)NCc2ccccn2)C2(CCC(C)CC2)OC1=O (configuration not stated)	-0.172
CCOC(=O)c1csc(NC(=O)C(C)(C)C)n1	0.0406
CC(C)C1CC(=O)NC(SCC(=O)Nc2ccc(Br)cc2)=C1C#N (configuration not stated)	-0.802
O=C(O)C1C2CCC(O2)C1C(=O)Nc1cccc(F)c1 (configuration not stated)	-0.0685
COC(=O)[C@H](CC(C)C)NC(=O)NC1CCCc2ccccc21 (some centres not stated)	-1.09
CCC(C(=O)OCC(=O)Nc1ccc(SC(F)F)cc1)c1ccccc1 (configuration not stated)	1.28
CCOC(=O)C1CCCN(C(=O)c2ccc(CS(=O)(=O)c3ccc(C)cc3)o2)C1 (configuration not stated)	0.0134
COCCCNC(=O)/C=C/c1ccc(Cl)cc1Cl	-0.0538
CCOC(=O)c1c(-c2ccccc2)csc1NC(=O)CCN1CCOCC1	-0.0435
O=C(CN1CCOCC1)Nc1ccc(Oc2ccc(NC(=O)CN3CCOCC3)cc2)cc1	-0.278
C=C(C)C(=O)OCCCCCCOc1ccc(C(=O)O)cc1	0.176
COc1ccc(C)cc1NC(=O)CSc1nnc(-c2ccco2)n1Cc1ccco1	-0.626
CN1CCN(c2ccc(NC(=O)c3cccc(OCc4ccccc4)c3)cc2)CC1	1.28
Clc1ccc(C2=Nn3c(nnc3-c3n[nH]c4c3CCC4)SC2)cc1Cl	-1.24
COc1ccc2[nH]cc(C=O)c2c1	-0.0109
Cc1nn(Cc2ccccc2)c(Cl)c1C(=O)NCCc1ccccc1	-0.424
CC(=O)NC1CC2CCC(C1)N2Cc1ccc(C)cc1 (configuration not stated)	-0.137
COc1ccc(Br)cc1-c1noc(-c2ccccc2F)n1	-0.17
Cn1nc(C(F)(F)F)c(/C=N/OC(=O)c2ccc(Cl)cc2)c1Cl	-0.0369

SMILES	z-score
CCN(CC)c1nc(C)nc2c1cnn2CCc1ccccc1	1.57
CCOc1ccc2c(c1)c1nnc(SCC(=O)N3CCC(C)CC3)nc1n2C	-1.87
CSc1nsc(SCC(=O)NC2CCCCC2)n1	1.45
Cc1ccnc(SCc2cc(=O)c(OC(=O)c3ccc(S(=O)(=O)N(C)C)cc3)co2)n1	-0.0077
Cn1c(=O)n(CCOc2ccc(Cl)cc2Cl)c2ccccc21	0.514
C/C(=N\O)C(=O)NCc1ccncc1	0.983
Cc1cccc(CSc2cn(CC(=O)N3CCOCC3)c3ccccc23)c1	-0.123
COc1ccc(CN(C(=O)Cc2cccs2)C(C(=O)NC2CCCC2)c2ccncc2)cc1 (configuration not stated)	-0.254
COc1ccccc1Oc1cc(C#N)c(C#N)cc1-n1nnc2ccccc21	-0.616
Cc1ccc(CNC(=O)C2CCCN(S(C)(=O)=O)C2)cc1 (configuration not stated)	1.11
O=S(=O)(/C=C/c1ccccc1)Nc1ccc(N2CCOCC2)cc1	1.67
CNC(=O)C1CC(=O)N/C(=N/N=C(\C)c2cccs2)S1 (configuration not stated)	0.265
O=C1c2cccc3cccc(c23)C(=O)N1CCN1CCN(C(=S)Nc2ccccc2)CC1	-0.18
COc1ccc([N+](=O)[O-])cc1C(=O)Nc1ccc(OCC(=O)N2CCOCC2)cc1	-0.156
CCOC(=O)CSc1nc2ccccc2c(=O)n1-c1ccc(C(=O)NCCOC)cc1	0.0706
CC(C)CCNS(=O)(=O)c1ccc(-c2ccc(S(=O)(=O)NCCC(C)C)cc2)cc1	0.201
CCCNC(=O)c1ccc(Cl)c(Cl)c1	0.636
Cc1ccc(Cl)cc1NC(=O)c1ocnc1C	-0.262
COc1cc(/C=C2/C(=N)N3C=CSC3=NC2=O)ccc1OCCCOc1c(C)cccc1C	0.373
O=C(CSc1nc2ccccc2s1)Nc1ccc(Cl)c(S(=O)(=O)N2CCOCC2)c1	-0.0799
CCn1c(C)c(C2=CCN(S(=O)(=O)c3ccccc3)CC2)c2ccccc21	-0.212
COC(=O)c1ccc(NC(=O)C(=O)N2CCN(C(=S)Nc3cccc(OC)c3)CC2)cc1	-0.0728
COc1ccc(CN=Cc2c(C(F)(F)F)[nH][nH]c2=O)cc1	0.314
CCn1nccc1C(=O)Nc1cc(Cl)ccc1Cl	-0.301
